Experimental data taken from patent US6448281B1 (Boehringer Ingelheim (Canada) Ltd., priority 2000, dated 2002).

biological target: hepatitis C virus RNA dependent polymerase (NS5B) (Hepacivirus hominis (Hepatitis C virus), UniProt P26663); assay: Inhibition of NS5B RNA dependent RNA polymerase activity (SPA, UMP-[5,6 3H] incorporation); conditions: IC50 μM, Table 2

SMILES	IC50
O=C(N[C@@H](Cc1c[nH]c2ccc(O)cc12)C(=O)O)c1ccc2c(c1)nc(C(F)(F)F)n2C1CCCCC1 [Entry 2111]	1 to 5 µM
COc1ccc(C(NC(=O)c2ccc3c(c2)nc(C2CCCCC2)n3C2CCCCC2)C(=O)O)cc1OC (centres unmarked) [Entry 2027]	10 to 25 µM
COc1ccc(C(NC(=O)c2ccc3c(c2)nc(-c2ccc[nH]2)n3C2CCCCC2)C(=O)O)cc1OC (centres unmarked) [Entry 2065]	1 to 5 µM
O=C(N[C@@H](Cc1c[nH]c2ccc(O)cc12)C(=O)O)c1ccc2c(c1)nc(-c1cccc(O)n1)n2C1CCCCC1 [Entry 2120]	1 to 5 µM
O=C(N[C@@H](Cc1c[nH]c2ccc(O)cc12)C(=O)O)c1ccc2c(c1)nc(-c1cc(O)cc(O)c1)n2C1CCCCC1 [Entry 2100]	1 to 5 µM
CC(=O)Nc1ccc(-c2nc3cc(C(=O)N[C@@H](Cc4c[nH]c5ccc(O)cc45)C(=O)O)ccc3n2C2CCCCC2)cc1 [Entry 2085]	1 to 5 µM
O=C(O)CC(NC(=O)c1ccc2c(c1)nc(-c1ccccn1)n2C1CCCCC1)c1ccccc1 (centres unmarked) [Entry 2056]	5 to 10 µM
O=C(N[C@@H](Cc1cnc[nH]1)C(=O)O)c1ccc2c(c1)nc(-c1ccccn1)n2C1CCCCC1 [Entry 2025]	5 to 10 µM
O=C(N[C@@H](Cc1ccc(O)cc1)C(=O)O)c1ccc2c(c1)nc(-c1ccccn1)n2C1CCCCC1 [Entry 2060]	1 to 5 µM
O=C(O)c1ccc(-c2nc3cc(C(=O)N[C@@H](Cc4c[nH]c5ccc(O)cc45)C(=O)O)ccc3n2C2CCCCC2)cc1 [Entry 2087]	1 to 5 µM
O=C(NC(Cc1c[nH]c2ccc(O)cc12)C(=O)O)c1ccc2c(c1)nc(C1CCCO1)n2C1CCCCC1 (centres unmarked) [Entry 2121]	1 to 5 µM
Cc1cccc(-c2nc3cc(C(=O)N[C@@H](Cc4c[nH]c5ccc(O)cc45)C(=O)O)ccc3n2C2CCCCC2)n1 [Entry 2122]	5 to 10 µM
COc1ccc(CNC(=O)c2ccc3c(c2)nc(-c2ccc(OCC(=O)NCCCN(C)C)cc2)n3C2CCCCC2)cc1OC [Entry 2062, 1-Cyclohexyl-2-{4-[(3-dimethylamino-propylcarbamoyl)-methoxy]-phenyl}-1H-benzoimidazole-5-carboxylic Acid 3,4-Dimethoxybenzyl Amide]	5 to 10 µM
COc1ccc(-c2nc3cc(C(=O)NC(C(=O)O)c4ccc(OC)c(OC)c4)ccc3n2C2CCCCC2)cc1 (centres unmarked) [Entry 2031]	10 to 25 µM
COc1ccc(C(NC(=O)c2ccc3c(c2)nc(-c2cc4ccccc4o2)n3C2CCCCC2)C(=O)O)cc1OC (centres unmarked) [Entry 2038]	10 to 25 µM

same assay, conditions: IC50 μM, Table 3

SMILES	IC50
CC(C)n1c(-c2ccoc2)nc2cc(C(=O)N[C@@H](Cc3c[nH]c4ccc(O)cc34)C(N)=O)ccc21 [Entry 3040]	1 to 5 µM

same assay, conditions: IC50 μM, Table 7

SMILES	IC50
O=C(O)c1ccc2c(c1)nc(-c1ccc(OCC(=O)N3CCOCC3)cc1)n2C1CCCCC1 [Entry 7017]	5 to 10 µM
O=C(O)c1ccc2c(c1)nc(-c1ccco1)n2C1CCCCC1 [Entry 7013]	1 to 5 µM
CC1CCCCC1n1c(-c2ccccn2)nc2cc(C(=O)O)ccc21 (centres unmarked) [Entry 7001]	10 to 25 µM

same assay, conditions: IC50 μM, Table 10

SMILES	IC50
CN(C(=O)c1ccc2c(c1)nc(-c1ccoc1)n2C1CCCCC1)[C@@H](Cc1ccc(O)cc1)C(=O)O [Entry 10001]	10 to 25 µM

same assay, conditions: IC50 μM, Table 22

SMILES	IC50
COC(=O)[C@H](Cc1c[nH]c2ccc(OCC(=O)O)cc12)NC(=O)c1ccc2c(c1)nc(-c1ccoc1)n2C1CCCC1 [Entry 22004]	< 1 µM
O=C(N[C@@H](Cc1c[nH]c2ccc(O)cc12)C(=O)O)c1ccc2c(c1)nc(-c1ccoc1)n2[C@@H]1CCCC[C@H]1O [Entry 22003]	< 1 µM

same assay, conditions: IC50 μM, first compound table (printed title TABLE 10; Table 1)

SMILES	IC50
O=C(O)c1ccc(CN2CCC(NC(=O)c3ccc4c(c3)nc(-c3ccoc3)n4C3CCCCC3)CC2)cc1 [Entry 1276]	10 to 25 µM
CC(CC(=O)Nc1ccc(CC(=O)O)cc1)NC(=O)CC(C)NC(=O)c1ccc2c(c1)nc(-c1ccoc1)n2C1CCCCC1 (centres unmarked) [Entry 1169]	10 to 25 µM
O=C(O)c1cccc(NC(=O)N2CCC(CNC(=O)c3ccc4c(c3)nc(-c3ccoc3)n4C3CCCCC3)CC2)c1 [Entry 1204]	5 to 10 µM
O=C(O)c1cccc(CN2CCC(NC(=O)c3ccc4c(c3)nc(-c3ccoc3)n4C3CCCCC3)CC2)c1 [Entry 1292]	10 to 25 µM
O=C(N[C@H](CO)c1ccccc1)c1ccc2c(c1)nc(-c1ccoc1)n2C1CCCCC1 [Entry 1008]	1 to 5 µM
[N-]=[N+]=Nc1ccc(C[C@H](NC(=O)c2ccc3c(c2)nc(-c2ccoc2)n3C2CCCCC2)C(=O)O)cc1 [Entry 1027]	1 to 5 µM
COC(=O)[C@H](CCc1ccc(O)cc1)NC(=O)c1ccc2c(c1)nc(-c1ccoc1)n2C1CCCCC1 [Entry 1031]	1 to 5 µM
O=C(O)COc1ccccc1CNC1CCCC(NC(=O)c2ccc3c(c2)nc(-c2ccoc2)n3C2CCCCC2)C1 (centres unmarked) [Entry 1263]	5 to 10 µM
O=C(NCC1CCN(Cc2ccccc2C(=O)O)CC1)c1ccc2c(c1)nc(-c1ccoc1)n2C1CCCCC1 [Entry 1267]	10 to 25 µM
CCOC(=O)CCNC(=O)N[C@H]1CC[C@H](NC(=O)c2ccc3c(c2)nc(-c2ccoc2)n3C2CCCCC2)CC1 [Entry 1216]	10 to 25 µM
O=C(NC(Cc1ccc(O)cc1)c1ccccc1)c1ccc2c(c1)nc(-c1ccoc1)n2C1CCCCC1 (racemic) [Entry 1259, 1-Cyclohexyl-2-furan-3-yl-1H-benzimidazole-5-carboxylic Acid [2-(4-hydroxy-phenyl)-1-phenyl-ethyl]-amide]	5 to 10 µM
Cc1nc([C@H](Cc2ccc(O)cc2)NC(=O)c2ccc3c(c2)nc(-c2ccoc2)n3C2CCCCC2)cs1 [Entry 1187, 1-Cyclohexyl-furan-3-yl-1H-benzimidazole-5-carboxylic Acid [(S)-2-(4-Hydroxy-phenyl)-1-(2-methyl-thiazol-4-yl)-ethyl]-amide]	1 to 5 µM
O=C(O)COc1ccc(CN2CCC(CNC(=O)c3ccc4c(c3)nc(-c3ccoc3)n4C3CCCCC3)CC2)cc1 [Entry 1283]	10 to 25 µM
O=C(Nc1ccccc1)c1ccc2c(c1)nc(-c1ccoc1)n2C1CCCCC1 [Entry 1007]	1 to 5 µM
O=C(NCC1CCNCC1)c1ccc2c(c1)nc(-c1ccoc1)n2C1CCCCC1 [Entry 1181]	5 to 10 µM
CC(CC(=O)Nc1cccc(/C=C/C(=O)O)c1)NC(=O)c1ccc2c(c1)nc(-c1ccoc1)n2C1CCCCC1 (centres unmarked) [Entry 1160]	1 to 5 µM

same assay, conditions: IC50, Table 11

SMILES	IC50
O=C(N[C@@H](Cc1c[nH]c2ccc(-c3nnn[nH]3)cc12)C(=O)O)c1ccc2c(c1)nc(-c1ccoc1)n2C1CCCCC1 [Entry 11022, (S)-2-{[1-(1-Cyclohexyl-2-furan-3-yl-1H-benzoimidazol-5-yl)-methanoyl]-amino}-3-[5(1H -tetrazol-5-yl)-1H-indol-3-yl]-propionic Acid]	< 1 µM
COC(=O)[C@H](Cc1c[nH]c2ccc(OCC(=O)O)cc12)NC(=O)c1ccc2c(c1)nc(-c1ccoc1)n2C1CCCCC1 [Entry 11008]	< 1 µM

same assay, conditions: IC50, Table 12

SMILES	IC50
O=C(N[C@@H](Cc1c[nH]c2ccc(O)cc12)C(=O)O)c1ccc2c(c1)nc(-c1cccs1)n2C1CCCCC1 [Entry 12012]	< 1 µM

same assay, conditions: IC50, Table 13

SMILES	IC50
O=C(N[C@@H](Cc1c[nH]c2ccc(O)cc12)C(=O)NCCN1CCOCC1)c1ccc2c(c1)nc(-c1ccoc1)n2C1CCCCC1 [Entry 13017, 1-Cyclohexyl-2-furan-3-yl-1H-benzimidazole-5-carboxylic Acid [(S)-2-(5-Hydroxy-1H-indol-3-yl)-1-(2-morpholin-4-yl-ethylcarbamoyl)-ethyl]-amide]	< 1 µM

same assay, conditions: IC50, Table 16

SMILES	IC50
O=C(N[C@@H](Cc1ccc(NS(=O)(=O)C(F)(F)F)cc1)C(=O)O)c1ccc2c(c1)nc(-c1ccoc1)n2C1CCCCC1 [Entry 16030, (S)-2-{[1-(1-Cyclohexyl-2-furan-3-yl-1H-benzoimidazol-5-yl)-methanoyl]amino}-3-(4-trifluoromethanesulfonylaminophenyl)-propionic Acid]	< 1 µM
O=C(O)c1ccc(C[C@H](NC(=O)c2ccc3c(c2)nc(-c2ccoc2)n3C2CCCCC2)C(=O)O)cc1 [Entry 16012]	< 1 µM
COc1ccc(C[C@H](NC(=O)c2ccc3c(c2)nc(-c2ccoc2)n3C2CCCCC2)C(=O)O)cc1OC [Entry 16007]	< 1 µM
COc1ccc([C@H](NC(=O)c2ccc3c(c2)nc(-c2ccoc2)n3C2CCCCC2)C(=O)O)cc1OC [Entry 16006, (S)-{[1-(1-Cyclohexyl-2-furan-3-yl-1H-benzoimidazole-5-yl)-methanoyl]-amino}-(3,4-dimethoxyphenyl)acetic Acid]	< 1 µM
O=C(O)COc1ccc(CC(NC(=O)c2ccc3c(c2)nc(-c2ccoc2)n3C2CCCCC2)C(=O)O)cc1C(=O)O (racemic) [Entry 16054, 5-(2-Carboxy-2-{[1-(1-cyclohexyl-2-furan-3-yl-1H-benzimidazol-5-yl)-methanoyl]-amino}-ethyl)-2-carboxymethoxy-benzoic Acid]	< 1 µM
O=C(N[C@@H](Cc1ccc(O)cc1)C(=O)Nc1cccnc1)c1ccc2c(c1)nc(-c1ccoc1)n2C1CCCCC1 [Entry 16046]	< 1 µM
O=C(O)Cc1ccc(C[C@H](NC(=O)c2ccc3c(c2)nc(-c2ccoc2)n3C2CCCCC2)C(=O)O)cc1 [Entry 16002, (S)-3-(4-Carboxymethyl-phenyl)-2-{[1-(1-cyclohexyl-2-furan-3-yl-1H-benzoimidazol-5-yl)-methanoyl]-amino}-propionic Acid]	< 1 µM
O=C(N[C@@H](Cc1ccc(-c2nnn[nH]2)cc1)C(=O)O)c1ccc2c(c1)nc(-c1ccoc1)n2C1CCCCC1 [Entry 16017, (S)-2-{[1-(1-Cyclohexyl-2furan-3-yl-1H-benzoimidazol-5-yl)methanoyl]amino}-3-[4-(1H-tetrazol-5-yl)phenyl]propionic Acid]	< 1 µM
O=C(O)COc1cccc(CC(NC(=O)c2ccc3c(c2)nc(-c2ccoc2)n3C2CCCCC2)C(=O)O)c1 (centres unmarked) [Entry 16020]	< 1 µM
O=C(N[C@@H](Cc1ccc(-n2cc(C(=O)O)nn2)cc1)C(=O)O)c1ccc2c(c1)nc(-c1ccoc1)n2C1CCCCC1 [Entry 16049]	< 1 µM
CN(C)CCCNC(=O)[C@H](Cc1ccc(O)cc1)NC(=O)c1ccc2c(c1)nc(-c1ccoc1)n2C1CCCCC1 [Entry 16048]	< 1 µM
